{
  "source": "paper PMC4336329",
  "about": "(PLoS ONE, 2015)",
  "note": "The whole screen tested about 310,000 compounds, of which about 2,200 (0.71%) showed an effect of 50% or more. Effects have a minus sign here. The list shows a part of the results.",
  "data": [
    {"target": "human ether-à-go-go-related gene (hERG) potassium channel (human, UniProt Q12809)", "sequence (Q12809 whole entry, looked up)": "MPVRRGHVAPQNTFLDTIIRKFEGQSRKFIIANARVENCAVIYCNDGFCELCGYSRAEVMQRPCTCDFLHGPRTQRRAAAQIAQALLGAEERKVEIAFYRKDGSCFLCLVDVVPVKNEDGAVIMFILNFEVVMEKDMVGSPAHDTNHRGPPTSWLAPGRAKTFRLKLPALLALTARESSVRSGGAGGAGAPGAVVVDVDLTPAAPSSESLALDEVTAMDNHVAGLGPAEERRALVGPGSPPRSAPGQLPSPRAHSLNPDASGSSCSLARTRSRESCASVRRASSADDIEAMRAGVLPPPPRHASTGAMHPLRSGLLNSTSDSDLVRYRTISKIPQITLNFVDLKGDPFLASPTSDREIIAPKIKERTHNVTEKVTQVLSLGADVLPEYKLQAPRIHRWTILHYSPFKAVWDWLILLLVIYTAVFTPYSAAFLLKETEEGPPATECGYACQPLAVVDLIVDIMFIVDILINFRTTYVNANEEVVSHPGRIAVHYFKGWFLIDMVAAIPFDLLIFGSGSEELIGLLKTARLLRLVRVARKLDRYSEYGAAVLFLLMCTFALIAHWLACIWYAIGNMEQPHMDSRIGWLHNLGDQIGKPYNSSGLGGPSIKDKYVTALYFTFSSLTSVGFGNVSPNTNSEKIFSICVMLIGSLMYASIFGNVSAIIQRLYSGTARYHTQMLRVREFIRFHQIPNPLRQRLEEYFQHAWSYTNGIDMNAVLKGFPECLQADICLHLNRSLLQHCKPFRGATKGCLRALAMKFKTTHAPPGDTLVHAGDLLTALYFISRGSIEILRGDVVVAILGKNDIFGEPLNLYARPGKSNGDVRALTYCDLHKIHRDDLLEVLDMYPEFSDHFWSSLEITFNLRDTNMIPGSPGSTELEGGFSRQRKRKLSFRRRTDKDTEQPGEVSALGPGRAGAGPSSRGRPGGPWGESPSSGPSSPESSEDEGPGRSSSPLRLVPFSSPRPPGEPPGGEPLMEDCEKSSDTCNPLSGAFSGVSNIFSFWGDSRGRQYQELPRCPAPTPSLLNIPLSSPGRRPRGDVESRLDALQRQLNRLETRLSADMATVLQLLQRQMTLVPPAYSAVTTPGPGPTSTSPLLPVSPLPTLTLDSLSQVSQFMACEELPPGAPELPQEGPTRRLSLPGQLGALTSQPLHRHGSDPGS", "test": "primary screen, population patch clamp on CHO cells stably expressing hERG", "units": {"hERG current change (%, negative = inhibition) at 1uM": "%"}, "values": [
      {"smiles": "COc1cc(CCC(=O)OCC(=O)NCC2CCCCC2)cc(OC)c1OC", "hERG current change (%, negative = inhibition) at 1uM": 6.32},
      {"smiles": "CCn1c(CSc2nc3ccccc3s2)nnc1SCC(=O)NCC(=O)OC", "hERG current change (%, negative = inhibition) at 1uM": -5.24},
      {"smiles": "Cc1nc2c(C(=O)NCc3ccc4c(c3)OCO4)c[nH]n2c(=O)c1Cl", "hERG current change (%, negative = inhibition) at 1uM": 1.43},
      {"smiles": "CCCc1cc(=O)oc2cc(C)cc(OCC(=O)NCC(O)c3ccccc3)c12", "note": "(centres unmarked)", "hERG current change (%, negative = inhibition) at 1uM": 13.5},
      {"smiles": "CCOC(=O)/C=C1\\SCC(=O)N1CC(=O)NC(C)c1ccccc1", "note": "(centres unmarked)", "hERG current change (%, negative = inhibition) at 1uM": -0.731},
      {"smiles": "CCCn1nc2cc(C(=O)NCc3ccc(C)cc3)ccc2c1OCC", "hERG current change (%, negative = inhibition) at 1uM": 13.7},
      {"smiles": "CCCc1cc(=O)oc2cc(OCC(=O)NC3CC(C)(C)NC(C)(C)C3)ccc12", "hERG current change (%, negative = inhibition) at 1uM": 14.3},
      {"smiles": "CN(Cc1ccccc1C#N)S(=O)(=O)c1cccs1", "hERG current change (%, negative = inhibition) at 1uM": 16},
      {"smiles": "CN1CCN(C(=O)C2=C[C@@H](c3coc4ccccc4c3=O)C[C@@H](OCCCCO)O2)CC1", "hERG current change (%, negative = inhibition) at 1uM": 10.8},
      {"smiles": "N#C/C(=C\\c1ccc(-c2cccc([N+](=O)[O-])c2)o1)C(=O)Nc1nc(-c2cccs2)cs1", "hERG current change (%, negative = inhibition) at 1uM": 9.51},
      {"smiles": "O=C(Nc1cc2c(=O)n(-c3ccc(Oc4ccccc4)cc3)ccc2oc1=O)c1ccccc1", "hERG current change (%, negative = inhibition) at 1uM": 10.2},
      {"smiles": "CC1CCN(C(=O)C2CCN(S(=O)(=O)N3CCC4(CC3)OCCO4)CC2)CC1", "hERG current change (%, negative = inhibition) at 1uM": 19.8},
      {"smiles": "CCOc1ccc(-c2ccc(SCC(=O)Nc3nnc(CC)s3)nn2)cc1", "hERG current change (%, negative = inhibition) at 1uM": 19},
      {"smiles": "Cc1ccc(S(=O)(=O)Oc2ccc(/C=C3\\N=C(c4cccc(C)c4)OC3=O)cc2)cc1", "hERG current change (%, negative = inhibition) at 1uM": 3.04},
      {"smiles": "CC(C)(C)c1ccc(C(=O)N2CCN(c3ccc(N4CCOCC4)nn3)CC2)cc1", "hERG current change (%, negative = inhibition) at 1uM": 1.65},
      {"smiles": "C=CCNC(=O)c1c(N)n(CCN2CCOCC2)c2nc3ccccc3nc12", "hERG current change (%, negative = inhibition) at 1uM": 5.58},
      {"smiles": "COC(=O)CCCC(=O)N(C)CC1CCCN(CCc2ccccc2C)C1", "note": "(centres unmarked)", "hERG current change (%, negative = inhibition) at 1uM": -12.7},
      {"smiles": "CCOC(=O)C1=C(CC)Nc2ccccc2N/C1=N\\S(=O)(=O)c1ccccc1F", "hERG current change (%, negative = inhibition) at 1uM": -1.17},
      {"smiles": "O=C(CSc1ccncc1)Nc1ccc(S(=O)(=O)Nc2nccs2)cc1", "hERG current change (%, negative = inhibition) at 1uM": 10.4},
      {"smiles": "O=C(NCc1ccccc1)c1ccc2ccccc2n1", "hERG current change (%, negative = inhibition) at 1uM": 20.1},
      {"smiles": "Cc1cc(C)cc(-n2c(C)cc(/C=N/NC(=O)CSc3ncccn3)c2C)c1", "hERG current change (%, negative = inhibition) at 1uM": 16.8},
      {"smiles": "Cc1ccc(NC(=O)CSc2nnc(Cc3csc(C)n3)o2)cc1", "hERG current change (%, negative = inhibition) at 1uM": 7.32},
      {"smiles": "Cc1nc(Nc2nc3ccccc3o2)nc(C)c1C(=O)Nc1ccc(F)cc1", "hERG current change (%, negative = inhibition) at 1uM": 5.93},
      {"smiles": "O=C(CC(c1ccccc1)c1ccccc1)NCC1CCCO1", "note": "(centres unmarked)", "hERG current change (%, negative = inhibition) at 1uM": 17.7},
      {"smiles": "Cc1ccc(CCNC(=O)C2CC(c3ccccc3C(F)(F)F)=NO2)cc1", "note": "(centres unmarked)", "hERG current change (%, negative = inhibition) at 1uM": 7.46},
      {"smiles": "O=C(/C=C/c1ccccc1)NCC(=O)N/N=C/c1cccs1", "hERG current change (%, negative = inhibition) at 1uM": -11.1},
      {"smiles": "O=C(O)CCCC(=O)Nc1cccc(-c2nc3ccccc3[nH]2)c1", "hERG current change (%, negative = inhibition) at 1uM": 18.9},
      {"smiles": "S=c1[nH]nc(-c2cc(-c3ccccc3)n[nH]2)n1/N=C/c1ccc(Cl)cc1", "hERG current change (%, negative = inhibition) at 1uM": 6.95},
      {"smiles": "COc1ccccc1N1CCN(C(=O)c2cc3cc(Br)ccc3oc2=O)CC1", "hERG current change (%, negative = inhibition) at 1uM": 6.77},
      {"smiles": "COc1ccc(F)cc1S(=O)(=O)N1CCC(C(N)=O)CC1", "hERG current change (%, negative = inhibition) at 1uM": 11.5},
      {"smiles": "COCCCNC(=S)N1CCN(S(=O)(=O)c2ccc(OC)cc2)CC1", "hERG current change (%, negative = inhibition) at 1uM": 6.33},
      {"smiles": "O=C(NCc1ccccn1)C1Nc2ccc(C(F)(F)F)cc2C2C=CCC12", "note": "(centres unmarked)", "hERG current change (%, negative = inhibition) at 1uM": 10.5},
      {"smiles": "CCCCCOC(=O)C1=C(C)NC(=O)NC1c1ccc(N(C)C)cc1", "note": "(centres unmarked)", "hERG current change (%, negative = inhibition) at 1uM": 10.3},
      {"smiles": "COc1ccc(Oc2c(C)oc3cc(OC(=O)N(C)C)ccc3c2=O)cc1", "hERG current change (%, negative = inhibition) at 1uM": 15},
      {"smiles": "CN(C)C(=O)c1cc(S(=O)(=O)N(C)C)c(Cl)cc1N1CCCC1", "hERG current change (%, negative = inhibition) at 1uM": 10},
      {"smiles": "CC1NC2(C(=O)N(Cc3ccccc3)c3ccccc32)C2C(=O)N(c3ccccc3)C(=O)C12", "note": "(centres unmarked)", "hERG current change (%, negative = inhibition) at 1uM": 11.7},
      {"smiles": "COc1ccc(CNCC(O)COCc2cccs2)cc1", "note": "(centres unmarked)", "hERG current change (%, negative = inhibition) at 1uM": -19.5},
      {"smiles": "O=C(c1cc(-c2ccccc2)nn1-c1ccccc1)N1CCN(S(=O)(=O)c2cccc(F)c2)CC1", "hERG current change (%, negative = inhibition) at 1uM": 14.6},
      {"smiles": "COC(=O)C/C(C)=N/Nc1ccc(S(=O)(=O)N2CCCC2)cc1[N+](=O)[O-]", "hERG current change (%, negative = inhibition) at 1uM": 15.3},
      {"smiles": "O=C(Nc1ccc(Cl)cc1)OCc1ccccn1", "hERG current change (%, negative = inhibition) at 1uM": 10.9},
      {"smiles": "Cn1nnnc1Sc1ncnc2scc(-c3ccccc3C(F)(F)F)c12", "hERG current change (%, negative = inhibition) at 1uM": 10},
      {"smiles": "Cc1c(C)c2cc3c4c(oc3c(C)c2oc1=O)CCCC4", "hERG current change (%, negative = inhibition) at 1uM": -0.48},
      {"smiles": "Cc1ccccc1NC1=NC2(CCCC2)N=C(N)N1", "hERG current change (%, negative = inhibition) at 1uM": 10.7},
      {"smiles": "COc1cc(NS(=O)(=O)c2ccc(NC(C)=O)cc2)cc(OC)c1", "hERG current change (%, negative = inhibition) at 1uM": 9.87}
    ]}
  ]
}
